Laboratory results reported in PMC7782850.
No constants are given. Whether binding was seen depends on the method and setting. Binding seen in cells or lysates may run through a third protein. Some binding calls cover weakened binding; strength is not graded here. For some of these results: Sequences can lack the tags named with a protein.

The chains behind the UniProt entries cited, without tags or fusion partners.
UniProt Q8WQC9: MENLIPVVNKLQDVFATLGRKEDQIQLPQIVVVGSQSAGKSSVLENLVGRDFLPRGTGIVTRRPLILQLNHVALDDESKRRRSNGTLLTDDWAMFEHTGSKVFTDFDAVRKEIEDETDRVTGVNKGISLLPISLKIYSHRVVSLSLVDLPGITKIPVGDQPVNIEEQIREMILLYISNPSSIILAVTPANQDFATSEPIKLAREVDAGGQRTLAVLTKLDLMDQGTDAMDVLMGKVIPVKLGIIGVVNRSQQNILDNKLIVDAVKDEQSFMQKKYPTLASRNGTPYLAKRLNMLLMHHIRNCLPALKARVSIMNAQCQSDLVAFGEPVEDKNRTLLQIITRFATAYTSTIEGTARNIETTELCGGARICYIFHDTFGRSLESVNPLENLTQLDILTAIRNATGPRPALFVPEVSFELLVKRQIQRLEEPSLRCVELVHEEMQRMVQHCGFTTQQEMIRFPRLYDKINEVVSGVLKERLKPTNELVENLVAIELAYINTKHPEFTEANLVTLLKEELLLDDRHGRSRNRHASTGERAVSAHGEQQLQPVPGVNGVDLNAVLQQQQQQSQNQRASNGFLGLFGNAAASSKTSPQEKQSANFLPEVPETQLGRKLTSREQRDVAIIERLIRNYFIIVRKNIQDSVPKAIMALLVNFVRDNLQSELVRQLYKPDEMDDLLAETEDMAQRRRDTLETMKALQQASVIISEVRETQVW

T1: GST-MIRO-1 (C. elegans) (UniProt Q94263)
T1 sequence: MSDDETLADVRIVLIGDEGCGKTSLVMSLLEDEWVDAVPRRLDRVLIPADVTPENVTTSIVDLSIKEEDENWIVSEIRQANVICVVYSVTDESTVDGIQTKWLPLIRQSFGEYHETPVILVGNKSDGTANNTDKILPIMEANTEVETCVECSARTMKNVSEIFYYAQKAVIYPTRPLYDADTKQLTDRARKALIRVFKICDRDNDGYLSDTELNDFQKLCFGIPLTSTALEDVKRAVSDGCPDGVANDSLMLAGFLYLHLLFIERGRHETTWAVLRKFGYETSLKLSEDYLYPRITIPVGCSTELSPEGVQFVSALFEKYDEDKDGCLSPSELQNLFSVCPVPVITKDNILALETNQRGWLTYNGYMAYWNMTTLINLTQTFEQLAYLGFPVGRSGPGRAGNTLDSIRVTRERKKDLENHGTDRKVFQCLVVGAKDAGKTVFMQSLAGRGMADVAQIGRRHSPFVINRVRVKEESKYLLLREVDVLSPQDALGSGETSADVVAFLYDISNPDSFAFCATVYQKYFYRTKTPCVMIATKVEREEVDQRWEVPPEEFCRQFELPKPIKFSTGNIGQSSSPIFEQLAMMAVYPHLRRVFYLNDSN

T2: FLAG-MTX-1 (C. elegans) (UniProt O45503)
T2 sequence: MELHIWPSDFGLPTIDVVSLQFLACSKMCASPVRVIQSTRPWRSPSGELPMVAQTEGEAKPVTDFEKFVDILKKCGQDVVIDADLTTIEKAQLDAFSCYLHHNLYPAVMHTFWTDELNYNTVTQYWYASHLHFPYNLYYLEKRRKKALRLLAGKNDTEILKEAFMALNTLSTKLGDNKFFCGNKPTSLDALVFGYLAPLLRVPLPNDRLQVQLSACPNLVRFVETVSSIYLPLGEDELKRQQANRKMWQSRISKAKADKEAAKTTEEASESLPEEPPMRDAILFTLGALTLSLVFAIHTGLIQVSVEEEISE

T3: FLAG-MIRO-1 (C. elegans) (UniProt Q94263)
T3 sequence: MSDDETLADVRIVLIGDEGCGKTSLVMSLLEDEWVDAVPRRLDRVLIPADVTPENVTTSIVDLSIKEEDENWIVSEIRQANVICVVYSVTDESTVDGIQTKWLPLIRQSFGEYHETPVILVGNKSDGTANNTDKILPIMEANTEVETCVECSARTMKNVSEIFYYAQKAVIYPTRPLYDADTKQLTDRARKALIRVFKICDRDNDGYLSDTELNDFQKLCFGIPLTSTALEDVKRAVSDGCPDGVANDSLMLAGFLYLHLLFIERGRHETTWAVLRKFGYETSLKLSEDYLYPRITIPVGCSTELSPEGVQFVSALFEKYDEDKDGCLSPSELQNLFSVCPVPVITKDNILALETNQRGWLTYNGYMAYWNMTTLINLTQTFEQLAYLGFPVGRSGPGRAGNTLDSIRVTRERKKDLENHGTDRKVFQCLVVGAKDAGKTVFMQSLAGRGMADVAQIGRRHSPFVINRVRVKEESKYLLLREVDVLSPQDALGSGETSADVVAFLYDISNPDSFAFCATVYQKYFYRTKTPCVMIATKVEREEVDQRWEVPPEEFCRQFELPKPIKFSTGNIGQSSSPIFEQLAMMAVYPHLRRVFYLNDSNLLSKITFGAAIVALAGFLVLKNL

T4: FLAG-MTX-2 (C. elegans) (UniProt P34599)
T4 sequence: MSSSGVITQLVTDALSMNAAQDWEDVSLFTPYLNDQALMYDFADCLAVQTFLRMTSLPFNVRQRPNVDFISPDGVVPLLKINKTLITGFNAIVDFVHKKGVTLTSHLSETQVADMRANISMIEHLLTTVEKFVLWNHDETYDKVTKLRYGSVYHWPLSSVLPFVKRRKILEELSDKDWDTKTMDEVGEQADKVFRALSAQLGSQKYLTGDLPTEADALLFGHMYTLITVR


How the values were obtained:
GST-MIRO-1 (C. elegans) [1] = target: T1, GST-MIRO-1 (C. elegans); assay: pull-down; E. coli cell lysates with the GST-tagged bait (or GST) mixed with cell lysates with His- or Trx-tagged proteins; Glutathione Sepharose 4 Fast Flow, PBS, 4 °C overnight; eluted with 20 mM glutathione; SDS-PAGE with Coomassie-blue staining
GST-MIRO-1 (C. elegans) [2] = target: T1, GST-MIRO-1 (C. elegans); assay: pull-down; four proteins: E. coli lysate with GST-MIRO-1 mixed with lysates with co-expressed Trx-MTX-1/Trx-MTX-2 and His-KLC-1-TPR; Glutathione Sepharose, PBS, 4 °C overnight; SDS-PAGE with Coomassie-blue staining
FLAG-MTX-1 (C. elegans) = target: T2, FLAG-MTX-1 (C. elegans); assay: co-IP; Flag-tagged bait and HA-tagged prey cotransfected into HEK293T cells, harvested after 48 h; NP40 Cell Lysis Buffer; ANTI-FLAG M2 Affinity Gel, 4 h at 4 °C; Western blotting
FLAG-DRP-1 (C. elegans) = FLAG-DRP-1 (C. elegans) (UniProt Q8WQC9); assay: as above
FLAG-MIRO-1 (C. elegans) = target: T3, FLAG-MIRO-1 (C. elegans); assay: as above
FLAG-MTX-2 (C. elegans) = target: T4, FLAG-MTX-2 (C. elegans); assay: as above
[3] = target: Miro1 (human (endogenous in HEK293T)), Q8IXI2; assay: co-IP; lysate of mitochondria isolated from HEK293T cells, endogenous proteins; mouse anti-Miro1 antibody at 4 °C overnight, Protein A/G magnetic beads; Western blot; cytosol fraction as control; conditions: remark: other sources report otherwise

binding (GST-MIRO-1 (C. elegans) [1])	binding (FLAG-DRP-1 (C. elegans))	binding (FLAG-MTX-2 (C. elegans))	Binder	other results
binds			MTX-1/2 complex (formed by co-expression of Trx-MTX-1 and Trx-MTX-2) (complex, UniProt O45503 1-281; P34599 1-230) chain 1: MELHIWPSDFGLPTIDVVSLQFLACSKMCASPVRVIQSTRPWRSPSGELPMVAQTEGEAKPVTDFEKFVDILKKCGQDVVIDADLTTIEKAQLDAFSCYLHHNLYPAVMHTFWTDELNYNTVTQYWYASHLHFPYNLYYLEKRRKKALRLLAGKNDTEILKEAFMALNTLSTKLGDNKFFCGNKPTSLDALVFGYLAPLLRVPLPNDRLQVQLSACPNLVRFVETVSSIYLPLGEDELKRQQANRKMWQSRISKAKADKEAAKTTEEASESLPEEPPMRDA chain 2: MSSSGVITQLVTDALSMNAAQDWEDVSLFTPYLNDQALMYDFADCLAVQTFLRMTSLPFNVRQRPNVDFISPDGVVPLLKINKTLITGFNAIVDFVHKKGVTLTSHLSETQVADMRANISMIEHLLTTVEKFVLWNHDETYDKVTKLRYGSVYHWPLSSVLPFVKRRKILEELSDKDWDTKTMDEVGEQADKVFRALSAQLGSQKYLTGDLPTEADALLFGHMYTLITVR	binding (GST-MIRO-1 (C. elegans) [2]): binds
binds			Trx-MTX-2 (protein, UniProt P34599 1-230) MSSSGVITQLVTDALSMNAAQDWEDVSLFTPYLNDQALMYDFADCLAVQTFLRMTSLPFNVRQRPNVDFISPDGVVPLLKINKTLITGFNAIVDFVHKKGVTLTSHLSETQVADMRANISMIEHLLTTVEKFVLWNHDETYDKVTKLRYGSVYHWPLSSVLPFVKRRKILEELSDKDWDTKTMDEVGEQADKVFRALSAQLGSQKYLTGDLPTEADALLFGHMYTLITVR	
	no binding		HA-MTX-2 (protein, UniProt P34599 1-230) MSSSGVITQLVTDALSMNAAQDWEDVSLFTPYLNDQALMYDFADCLAVQTFLRMTSLPFNVRQRPNVDFISPDGVVPLLKINKTLITGFNAIVDFVHKKGVTLTSHLSETQVADMRANISMIEHLLTTVEKFVLWNHDETYDKVTKLRYGSVYHWPLSSVLPFVKRRKILEELSDKDWDTKTMDEVGEQADKVFRALSAQLGSQKYLTGDLPTEADALLFGHMYTLITVR	binding (FLAG-MTX-1 (C. elegans)): binds; binding (FLAG-MIRO-1 (C. elegans)): binds
	no binding	binds	HA-MIRO-1 (protein, UniProt Q94263 1-625) MSDDETLADVRIVLIGDEGCGKTSLVMSLLEDEWVDAVPRRLDRVLIPADVTPENVTTSIVDLSIKEEDENWIVSEIRQANVICVVYSVTDESTVDGIQTKWLPLIRQSFGEYHETPVILVGNKSDGTANNTDKILPIMEANTEVETCVECSARTMKNVSEIFYYAQKAVIYPTRPLYDADTKQLTDRARKALIRVFKICDRDNDGYLSDTELNDFQKLCFGIPLTSTALEDVKRAVSDGCPDGVANDSLMLAGFLYLHLLFIERGRHETTWAVLRKFGYETSLKLSEDYLYPRITIPVGCSTELSPEGVQFVSALFEKYDEDKDGCLSPSELQNLFSVCPVPVITKDNILALETNQRGWLTYNGYMAYWNMTTLINLTQTFEQLAYLGFPVGRSGPGRAGNTLDSIRVTRERKKDLENHGTDRKVFQCLVVGAKDAGKTVFMQSLAGRGMADVAQIGRRHSPFVINRVRVKEESKYLLLREVDVLSPQDALGSGETSADVVAFLYDISNPDSFAFCATVYQKYFYRTKTPCVMIATKVEREEVDQRWEVPPEEFCRQFELPKPIKFSTGNIGQSSSPIFEQLAMMAVYPHLRRVFYLNDSNLLSKITFGAAIVALAGFLVLKNL	
			Mtx1, Q13505 1-466 (protein) MLLGGPPRSPRSGTSPKGPWSSTGHVQFGKSPQTWPRRTRPRSPEPAAPSGVRGSTWTRRRDSPRRAGPTALSRYVGHLWMGRRPPSPEARGPVPRSSAASRARRSLASPGISPGPLTATIGGAVAGGGPRQGRAEAHKEVFPGQRVGKMAAPMELFCWSGGWGLPSVDLDSLAVLTYARFTGAPLKVHKISNPWQSPSGTLPALRTSHGEVISVPHKIITHLRKEKYNADYDLSARQGADTLAFMSLLEEKLLPVLVHTFWIDTKNYVEVTRKWYAEAMPFPLNFFLPGRMQRQYMERLQLLTGEHRPEDEEELEKELYREARECLTLLSQRLGSQKFFFGDAPASLDAFVFSYLALLLQAKLPSGKLQVHLRGLHNLCAYCTHILSLYFPWDGAEVPPQRQTPAGPETEEEPYRRRNQILSVLAGLAAMVGYALLSGIVSIQRATPARAPGTRTLGMAEEDEEE	binding [3]: binds
		binds	HA-MTX-1 (protein, UniProt O45503 1-312) MELHIWPSDFGLPTIDVVSLQFLACSKMCASPVRVIQSTRPWRSPSGELPMVAQTEGEAKPVTDFEKFVDILKKCGQDVVIDADLTTIEKAQLDAFSCYLHHNLYPAVMHTFWTDELNYNTVTQYWYASHLHFPYNLYYLEKRRKKALRLLAGKNDTEILKEAFMALNTLSTKLGDNKFFCGNKPTSLDALVFGYLAPLLRVPLPNDRLQVQLSACPNLVRFVETVSSIYLPLGEDELKRQQANRKMWQSRISKAKADKEAAKTTEEASESLPEEPPMRDAILFTLGALTLSLVFAIHTGLIQVSVEEEISE	
